{"source": "paper PMC4588566", "about": "“A covalent homodimer probing early oligomers along amyloid aggregation” (Scientific Reports, 2015)", "proteins": {"B1": {"name": "S33C β2m variant (beta-2 microglobulin, Ser33 to Cys), one chain (natural protein)", "chain": "not shown", "notes": "beta-2 microglobulin (β2m), 99-residue globular protein, with Ser33 mutated to Cys; synthetic gene; also called Ser33 to Cys β2m variant; mutated β2m; source: E. coli BL21 (DE3), pET21B"}}, "molecular_target": "the molecule itself", "assay": "SEC; refolded S33C β2m without an added oxidation reaction; spontaneously formed covalent dimer separated on Superdex75 16/60, 20 mM sodium phosphate pH 7.4", "data": [{"protein": "B1", "values": [{"measurement": "stoichiometry N", "result": 2}]}]}
